From PubChem BioAssay (NCATS)
Inconclusive results, whose numbers are uncertain, are shown with a selection of clear calls. For some of these results: Potencies of inconclusive entries are doubtful fits and often do not repeat. Activity calls are given as the source filed them. Unless noted, the call rests on the fitted dose curve; in most records, active means well fitted curve in the direction sought with a large enough effect; inconclusive means small, poorly fitted or top-dose-only effect, or another doubt; inactive means no such curve, though single readings can be large; an effect the other way counts as inactive or inconclusive.

How the values were obtained:
[1] = Cell Viability - LYMP2-021 (AID 974); further: potency means the concentration at half of the fitted maximal effect; nearly all actives have a fitted effect of over 55% in size
Outline: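 AC50 values come from Hill-equation fits to CellTiter-Glo luminescence (ATP content), read after 24 hour compound exposure at 37 C of 2500 LYMP2-021 lymphoblastoid cells/well; tetraoctylammonium bromide as positive control.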

[2] = Cell Viability - LYMP2-023 (AID 975); further: potency means the concentration at half of the fitted maximal effect; nearly all actives have a fitted effect of over 55% in size
Outline: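 Intracellular ATP, read by CellTiter-Glo luminescence, reports viability after 24 hr compound exposure at 37 C. 2500 lymphoblastoid cells/well (LYMP2-023) seeded 5 hr beforehand; Hill fits give AC50; positive control tetraoctylammonium bromide.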

[3] = Cell Viability - LYMP2-002 (AID 977); conditions: LYMP2-002 lymphoblastoid cell viability, qHTS; activity change, negative = cytotoxic: at 92.2 µM (top of the series); further: potency means the concentration at half of the fitted maximal effect
Outline: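 Human lymphoblastoid cells (2500/well) in complete medium were preincubated 5 hr at 37 C, then exposed to compounds for 24 hr at 37 C. Intracellular ATP was read by CellTiter-Glo luminescence; AC50 came from Hill-equation concentration-response fits.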

[4] = Cell Viability - LYMP2-006 (AID 978); further: potency means the concentration at half of the fitted maximal effect; nearly all actives have a fitted effect of over 60% in size
Outline: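 qHTS, 1536-well; 2500 cells/well, 5 hr 37 C; cpd 24 hr 37 C; CellTiter-Glo 30 min RT; luminescence. Tetraoctylammonium bromide pos. ctrl. AC50 via Hill eqn.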

[5] = Cell Viability - LYMP2-007 (AID 979); conditions: LYMP2-007 lymphoblastoid cell viability; activity change, negative = cytotoxicity: at 92.2 µM (top of the series);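 further: potency means the concentration at half of the fitted maximal effect; cells exposed to compound for 24 h before reading; nearly all actives have a fitted effect of over 60% in size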
Outline: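 AC50 values come from Hill-equation fits of luminescent intracellular ATP (CellTiter-Glo, 30 min, room temperature) following 24 h compound exposure at 37 C. Cells: LYMP2-007 lymphoblastoid line, 2500 per well, in complete culture medium.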

[6] = Cell Viability - LYMP2-008 (AID 980); conditions: LYMP2-008 lymphoblastoid cell viability, qHTS; further: potency means the concentration at half of the fitted maximal effect; nearly all actives have a fitted effect of over 60% in size
Outline: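 Cytotoxicity determined from ATP-dependent luciferase luminescence (CellTiter-Glo) following 24 h compound exposure of human lymphoblastoid LYMP2-008 cells at 37 C. Concentration-response data fitted to the Hill equation to give AC50.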

[7] = Cell Viability - LYMP2-010 (AID 981); further: potency means the concentration at half of the fitted maximal effect; nearly all actives have a fitted effect of over 55% in size
Outline: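 CellTiter-Glo ATP luminescence measured cytotoxicity after 24 h compound exposure at 37 C. LYMP2-010 cells were seeded at 2500/well, with tetraoctylammonium bromide as control; concentration-response curves gave AC50 values by the Hill equation.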

[8] = Cell Viability - LYMP2-014 (AID 983); further: potency means the concentration at half of the fitted maximal effect; nearly all actives have a fitted effect of over 50% in size
Outline: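 Intracellular ATP loss, read by luciferase luminescence, measures acute cytotoxicity after 24 h compound exposure of lymphoblastoid LYMP2-014 cells (2500/well, 37 C). Concentration-response data fitted to the Hill equation for AC50.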

[9] = Cell Viability - LYMP2-016 (AID 984); conditions: LYMP2-016 lymphoblastoid cell viability, qHTS; activity change, negative = cytotoxicity: at 92.2 µM (top of the series); further: potency means the concentration at half of the fitted maximal effect; nearly all actives have a fitted effect of over 55% in size
Outline: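 qHTS, 1536-well: 2500 LYMP2-016 cells/well, 5 hr 37 C, compound added, 24 hr 37 C, CellTiter-Glo 30 min RT, luminescence. Tetraoctylammonium bromide positive control. AC50 via Hill fit.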

[10] = Cell Viability - LYMP2-018 (AID 985); further: potency means the concentration at half of the fitted maximal effect; nearly all actives have a fitted effect of over 50% in size
Outline: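 Viability read as CellTiter-Glo luminescence (cellular ATP) after 24 hr compound exposure at 37 C of 2500 LYMP2-018 lymphoblastoid cells/well, pre-plated 5 hr. Hill-equation modelling gave AC50.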

[11] = Cell Viability - LYMP2-020 (AID 986); conditions: activity change, negative = viability loss: at 92.2 µM (top of the series)
Outline: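 Cytotoxicity in qHTS format: luminescent ATP readout from CellTiter-Glo after 24 h compound exposure at 37 C in complete medium. LYMP2-020 lymphoblastoid cells were seeded at 2500/well; concentration-response data fitted to the Hill equation for AC50.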

[12] = Cell Viability - LYMP2-024 (AID 988); conditions: LYMP2-024 lymphoblastoid cell viability; activity change, negative = cytotoxicity: at 92.2 µM (top of the series); further: potency means the concentration at half of the fitted maximal effect; nearly all actives have a fitted effect of over 60% in size
Outline: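 Cytotoxicity was taken as a decrease in ATP (CellTiter-Glo luminescence) after 24 hr compound exposure at 37 C of LYMP2-024 lymphoblastoid cells, 2500 cells/well. Concentration-response data were fitted to the Hill equation to give AC50.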

[13] = Cell Viability - LYMP1-002 - Assay at 40 hr (AID 994)
Outline: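 Cytotoxicity was read as loss of cellular ATP (CellTiter-Glo luminescence) after 40 hr compound exposure at 37 C of 2500 LYMP1-002 lymphoblastoid cells per well. Concentration-response data were fitted with the standard Hill equation to give AC50.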

[14] = molecular target: Bile acid receptor (Homo sapiens) (UniProt Q96RI1); experiment: qHTS assay for small molecule antagonists of farnesoid X receptor signaling (AID 588526; calls by dose curve; further: potency means the concentration at half of the fitted maximal effect); conditions: HEK293T FXR-UAS-bla, beta-lactamase ratio, antagonist mode; activity change, negative = inhibition: at 76.7 µM (top of the series)
Outline: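 Beta-lactamase reporter antagonist mode: HEK293T FXR-UAS-bla cells, titrated compound, CDCA stimulation, 16 h 37 C, CCF4 dye 2 h RT. Data normalized to CDCA 50 uM and DMSO; Hill-fit IC50.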

[15] = molecular target: Peroxisome proliferator-activated receptor gamma (Homo sapiens) (UniProt P37231); experiment: qHTS assay for small molecule agonists of peroxisome proliferator-activated receptor gamma signaling (AID 588536; active means well fitted curve in the direction sought with a large enough effect in the signal ratio, with a control signal flat, not every such curve was filed as active; inconclusive means small, poorly fitted or top-dose-only effect, or effect the other way, or a change in a side signal; inactive means no such curve, though single readings can be large or run the other way; the % refers to the signal ratio; further: potency means the concentration at half of the fitted maximal effect); conditions: HEK293 PPARg-UAS-bla, beta-lactamase ratio, 16 h; activation: at 76.7 µM (top of the series), percent of rosiglitazone response, DMSO as zero
Outline: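 Cells were plated and held 6–6.5 h at 37 C, then compounds were added as a titration series. After a further 16 h, CCF4 dye was loaded for 2 h at room temperature and emission at 460/530 nm recorded.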

[16] = molecular target: Peroxisome proliferator-activated receptor gamma (Homo sapiens) (UniProt P37231); experiment: qHTS assay for small molecule antagonists of peroxisome proliferator-activated receptor gamma signaling (AID 588537; active means well fitted inhibition curve with a large enough effect in the signal ratio, with a control signal flat, not every such curve was filed as active; inconclusive means small, poorly fitted or top-dose-only effect, or effect the other way, or a change in a side signal; the % refers to the signal ratio;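 further: reporter cells co-stimulated with 50 nM rosiglitazone agonist during compound treatment; % of control where 0% means no effect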); conditions: HEK293 PPARg-UAS-bla, beta-lactamase ratio, antagonist mode; activity, negative = inhibition: at 76.8 µM (top of the series)
Outline: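 Antagonist-mode β-lactamase reporter screen run as a titration series. HEK293 PPARγ-UAS-bla cells are stimulated with rosiglitazone (50 nM final) for 16 h, then CCF4 is read at 460/530 nm. Data are scaled between DMSO and rosiglitazone and fitted to the Hill equation.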

[17] = molecular target: Retinoic acid receptor RXR-alpha (Homo sapiens) (UniProt P19793); experiment: qHTS assay for small molecule agonists of retinoid X receptor alpha signaling (AID 588544; calls by dose curve;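 further: 0% = DMSO basal wells and 100% = reference agonist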); conditions: HEK293T RXRa-UAS-bla, beta-lactamase reporter, 18 h; activation: at 76.7 µM (top of the series) unless noted
Sequence of UniProt P19793 (P19793 whole entry, looked up): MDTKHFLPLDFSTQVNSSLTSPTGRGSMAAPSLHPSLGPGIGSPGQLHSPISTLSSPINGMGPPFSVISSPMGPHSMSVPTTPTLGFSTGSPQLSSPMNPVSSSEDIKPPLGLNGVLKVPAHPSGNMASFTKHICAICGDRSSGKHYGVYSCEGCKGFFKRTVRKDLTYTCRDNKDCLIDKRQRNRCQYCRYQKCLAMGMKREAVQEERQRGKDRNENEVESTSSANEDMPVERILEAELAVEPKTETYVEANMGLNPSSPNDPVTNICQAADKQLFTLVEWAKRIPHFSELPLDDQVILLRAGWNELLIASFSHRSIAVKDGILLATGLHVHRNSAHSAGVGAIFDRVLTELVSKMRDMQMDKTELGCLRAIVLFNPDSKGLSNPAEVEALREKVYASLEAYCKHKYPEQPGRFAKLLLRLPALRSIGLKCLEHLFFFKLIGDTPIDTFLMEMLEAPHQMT

[18] = qHTS assay for small molecule agonists of the antioxidant response element (ARE) signaling pathway (AID 651741; active means well fitted activation curve with a large enough effect in the signal ratio; inconclusive means small, poorly fitted or top-dose-only effect, or effect the other way, or a change in a side signal; the % refers to the signal ratio; further: potency means the concentration at half of the fitted maximal effect); conditions: HepG2 ARE-bla reporter, beta-lactamase FRET ratio, 16 h; activation: at 96 µM (top of the series) unless noted
Outline: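 Beta-lactamase reporter under ARE control in HepG2 cells, 2,000 per well, was induced by 16 h compound treatment at 37 C. Read-out was fluorescence from LiveBLAzer B/G FRET substrate after 2 h at room temperature.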

[19] = molecular target: Tumor necrosis factor (Homo sapiens) (UniProt P01375); experiment: qHTS assay to identify small molecules that stimulate Tumor Necrosis Factor-alpha (TNF-alpha) secretion (AID 651757; active means well fitted curve in the direction sought with a large enough effect in the signal ratio; inconclusive means small, poorly fitted or top-dose-only effect, or a change in a side signal; inactive means no such curve, though single readings can be large or run the other way; the % refers to the signal ratio; further: 0% is about no effect); conditions: Human cells, HTRF 665/615 ratio; activation (TNF-alpha secretion): at 92.2 µM (top of the series)
Sequence of UniProt P01375 (P01375 whole entry, looked up): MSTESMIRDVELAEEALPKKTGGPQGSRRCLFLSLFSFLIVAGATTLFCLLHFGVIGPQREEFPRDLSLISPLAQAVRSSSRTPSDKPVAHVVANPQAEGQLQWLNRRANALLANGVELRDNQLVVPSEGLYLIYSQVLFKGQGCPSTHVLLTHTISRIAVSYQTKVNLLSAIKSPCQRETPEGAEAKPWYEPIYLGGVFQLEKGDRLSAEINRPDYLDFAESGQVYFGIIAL
Outline: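 Secreted TNF-alpha quantified by TR-FRET sandwich of two labeled anti-TNF-alpha antibodies, incubated 3 hr at room temperature. Preceded by 17 hr, 37 C compound treatment of THP-1 cells at 3000 cells/well.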

[20] = qHTS assay to identify small molecules that stimulate interleukin-8 (IL-8) secretion (AID 651758; active means well fitted activation curve with a large enough effect in the signal ratio; inconclusive means small, poorly fitted or top-dose-only effect, or effect the other way, or a change in a side signal; the % refers to the signal ratio; further: potency means the concentration at half of the fitted maximal effect); conditions: HTRF ratio (665/615); activation: at 92.2 µM (top of the series)
Outline: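 Secreted IL-8 measured homogeneously by TR-FRET (two labelled anti-IL-8 antibodies, 1-3 h at room temperature) after a 16 h, 37 C compound treatment of THP-1 cells at 2000 cells/well.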

[21] = qHTS assay for small molecule agonists of the antioxidant response element (ARE) signaling pathway measured by Nrf2-dependant transcriptional activity (AID 720636; active means well fitted curve in the direction sought with a large enough effect in the repeat runs; inconclusive means weak or mixed curves; inactive means no such curve, though single readings can be large; an effect the other way counts as inactive or inconclusive; further: potency means the concentration at half of the fitted maximal effect)
Outline: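 ONE-Glo luminescence, read 30 min after reagent addition at room temperature, reflected ARE reporter activity in HepG2 cells that had been incubated with compound for 16 hr at 37 C in 1% dialyzed FBS.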

[22] = qHTS assay for cell viability of HEK293 cells (AID 743288); conditions: ATP luminescence (CellTiter-Glo), 18 h; max response: active compounds read low; further: potency means the concentration at half of the fitted maximal effect; nearly all actives have a fitted effect of over 50% in size
Outline: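 ATP luminescence (CellTiter-Glo) reports metabolically competent cell number after parental HEK293 cells, 2,000/well, were treated with DMSO-dissolved compounds for 18 h at 37 C; reagent incubation 30 min, room temperature.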
Tags describe the fitted curve by direction and shape or compound fluorescence and quenching.

CCN(CC)c1ccc(N)cc1
active: Potency [18] 37.6 µM | Potency [20] 37.6 µM
inconclusive: Potency [1] 50.1 µM [cytotoxic, partial curve] | Potency [2] 50.1 µM [cytotoxic, partial curve, poor fit] | Potency [3] 50.1 µM [cytotoxic, partial curve, poor fit] | Potency [4] 39.8 µM [cytotoxic, partial curve] | Potency [5] 39.8 µM [cytotoxic, partial curve] | Potency [6] 39.8 µM [cytotoxic, partial curve, poor fit] | Potency [7] 50.1 µM [cytotoxic, partial curve] | Potency [8] 50.1 µM [cytotoxic, single point] | Potency [9] 50.1 µM [cytotoxic, partial curve, poor fit] | Potency [10] 50.1 µM [cytotoxic, partial curve] | Potency [11] 39.8 µM [cytotoxic, partial curve, poor fit] | Potency [12] 39.8 µM [cytotoxic, partial curve] | Potency [13] 50.1 µM [cytotoxic, single point] | Potency [14] 39.8 µM [inhibitor, partial curve] | Potency [15] 39.8 µM [inhibitor, partial curve] | activity, negative = inhibition [16] -47.2% | activation [17] -33% | activation (TNF-alpha secretion) [19] -0.103% | Potency [21] 3.35 µM [activator, full curve, poor fit] | Potency [22] 50.1 µM [cytotoxic, partial curve, poor fit]
